Laboratory results: the RNAGym collection of RNA variant scans (doi:10.1093/nar/gkz1192)
Read counts are not given, so values of variants with three or more changes are uncertain.

B1: CPEB3 Ribozyme (parent)
chain: UAACAGGGGGCCACAGCAGAAGCGUUCACGUCGCAGCCCCUGUCAGAUUCUGGUGAAUCUGCGAAUUCUGCUGUAUAUCUC

Variants of: B1
Experiment: self-cleavage, relative activity (ratio to wild type); higher = more cleavage; in vitro, sequencing
Outline: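 After error-prone PCR and barcoding, CPEB3 ribozyme mutant libraries were transcribed with T7 RNA polymerase at 37°C for 5 hours, then given 15 min with DNase I before an EDTA stop, and they cleaved during both steps. Reverse transcription with template switching preceded Illumina sequencing. Relative activity divides a variant's cleaved/total read fraction by the unmutated ribozyme's. At least 5 reads were required per variant, and three batches were averaged.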

Variant | self-cleavage
U31A U41G U60A U66C U67C U74A | 0.08
U31A U43A A45G U49G G55A | 0.14
U31A U43C C44U U48G G55U | 0.18
U31A U43C U49A | 0.24
U31A U43C U49G G53C | 0.1
U31A U48C U51C U60C | 0.07
U31A U48C U51G A64G U78C | 0.07
U31A U48C U80C | 0.54
U31A U49C G61A | 0.13
U31A U49C U54C U66C U72C | 0.09
U31A U49C U58C U69G | 0.16
U31A U51A A56G U60A | 0.2
U31A U51A C81U | 0.52
U31A U51A U76C | 0.66
U31A U51C A56G U78C | 0.46
U31A U51C A57G U72C | 0.35
U31A U51C U58A | 0.19
U31A U51C U76A | 0.57
U31A U51G U60C | 0.09
U31A U54A A65U A77C | 0.12
U31A U54A U60A U69A U72C U76C U80A | 0.15
U31A U54A U69A | 0.22
U31A U54A U69C U72C U80C | 0.13
U31A U54C G61C A64U A65G U76C | 0.06

Variant | self-cleavage
U31A U54C U58C U66C U69A G70A | 0.12
U31A U54C U80C | 0.56
U31A U54G C59U A64U U80C | 0.11
U31A U58A A64U | 0.16
U31A U58C U67A U76C | 0.1
U31A U60A A65G | 0.26
U31A U60C U66C | 0.13
U31A U60C U80C | 0.14
U31A U66C U67C | 0.23
U31A U69A U74C | 0.44
U31A U69C U78C | 0.23
U31A U72C A75G | 0.84
U31C A35C U51A A57G G70C C71A | 0.17
U31C A35C U51C | 0.54
U31C A35G A45C U58C A77U | 0.13
U31C A35G A45U U80A | 1.07
U31C A35G C39U U54C | 1.26
U31C A35G G42U U43C A57G U60C U69C | 0
U31C A35G U43G | 0.09
U31C A35G U49A A77G | 1.31
U31C A35G U49C A56G U72C | 1.31
U31C A35G U51C | 1.26
U31C A35G U54C U60G | 0.3
U31C A35G U80C | 1.3

Variant | self-cleavage
U31C A35U A45G | 0.17
U31C A35U A45G U78C | 0.1
U31C A35U U41A U78A | 0.09
U31C A35U U41C G46U | 0.11
U31C A35U U41G U43C U49C U66A U72C | 0.15
U31C A35U U74A U78C | 0.6
U31C A45C A56U U69C | 0.09
U31C A45C A65U | 0.44
U31C A45C U54G A64U U74C U76A | 0.18
U31C A45C U58C U72C G73C | 0.16
U31C A45G A56G G63C | 0.3
U31C A45G A56G U66A | 0.1
U31C A45G A64G | 0.14
U31C A45G C62A U69C U72C | 0.21
U31C A45G G63U U67C | 0.13
U31C A45G U51C U54C | 0.36
U31C A45G U54A A56U A57U U58C | 0.13
U31C A45G U54A U60C U74C | 0.98
U31C A45G U72A | 0.26
U31C A45G U72A U74C | 0.48
U31C A45U G52A A64G G70A | 0.14
U31C A45U U48A A56G C59U U78C | 0.06
U31C A45U U51C A57G A64U | 0.05
U31C A45U U51G U66A | 0.11

Variant | self-cleavage
U31C A45U U60A | 0.93
U31C A45U U69C | 0.43
U31C A47C U51A U80C | 0.24
U31C A47G A57G A77G | 0.32
U31C A47G A77U | 0.44
U31C A47G C59A | 0.11
U31C A47G G53A U72A | 0.34
U31C A47G U48A | 0.31
U31C A47G U78A | 0.91
U31C A47U U60C | 0.08
U31C A56G A57U U78C | 0.18
U31C A56G A65U U69A U72A | 0.08
U31C A56G G63C | 0.29
U31C A56G U58A | 0.12
U31C A56U U58A U60C | 0.16
U31C A56U U67C | 0.15
U31C A57C U58C | 0.14
U31C A57G A64U | 0.18
U31C A57G U60C | 0.27
U31C A57G U60C U66A | 0.35
U31C A57G U72C A77U | 0.93
U31C A64C A65G U80A | 0.09
U31C A64G U66C | 0.5
U31C A64U U72C | 0.16

Variant | self-cleavage
U31C A65G C68U | 0.14
U31C A65G U80A | 0.42
U31C A75U U78C | 0.88
U31C A77G U78A | 0.87
U31C A77U U78C | 0.93
U31C C32A A45U U51C A65G U74C | 0.08
U31C C32A U67C C68U U74A | 0.06
U31C C32G U41C U69C C71G U78C | 0.11
U31C C32G U43C | 0.12
U31C C32U A45U U54C U78C | 0.04
U31C C32U A64G | 0.37
U31C C32U U41C U60A U69C | 0.08
U31C C32U U43A U54A | 0.07
U31C C34A U54C U60C | 0.13
U31C C34G U54A | 0.39
U31C C34U C37A U60G | 0.07
U31C C37A A56U | 0.11
U31C C37A U48C A56U | 0.12
U31C C37U U49A U60C U69C | 0.1
U31C C38A A57G | 0.07
U31C C38U A64U U80C | 0.15
U31C C39A U60C | 0.09
U31C C39G U41A | 0.24
U31C C39U A45U A47G | 0.1

Variant | self-cleavage
U31C C39U U49C | 0.24
U31C C40G U41C U60A U69C | 0.18
U31C C40U A47G U78C | 0.24
U31C C40U U41C A47G A56G U60A | 0.06
U31C C40U U41C U60C U69A | 0.32
U31C C40U U43A A45U C68U U69C U76C | 0.03
U31C C40U U43A U78C | 0.5
U31C C40U U48C A56G A57U | 0.15
U31C C40U U54C A57G U72A | 0.29
U31C C40U U60A U69C | 0.11
U31C C40U U80C | 0.83
U31C C50A A57C | 0.31
U31C C59A A64C | 0.09
U31C C59U U69C A75G | 0.28
U31C C62U U72G | 0.41
U31C C71G C79A | 0.17
U31C C71U U72C | 0.16
U31C G33A A35G A45G A57G U66C U80C | 0.08
U31C G33A A35U U41A U48C C71A | 0.07
U31C G33A A45U U80C | 0.37
U31C G33A A56U | 0.15
U31C G33A U41A A64G | 0.16
U31C G33A U49A U58C | 0.13
U31C G33A U58A U72C | 0.1

Variant | self-cleavage
U31C G33U A64U G70A | 0.07
U31C G33U U41A U67C C79A | 0.02
U31C G33U U74C | 0.27
U31C G33U U78C | 0.18
U31C G36A U43A U72A G73A | 0.56
U31C G36A U67C A75U | 0.05
U31C G36C A47G G53A A65U | 0.12
U31C G36C G53A U74A | 0.09
U31C G36C U41G | 0.4
U31C G36C U54C | 0.11
U31C G36U U43C G46C A64U | 0.12
U31C G36U U43G U51C | 0.11
U31C G42A A47G A57C A75G | 0.04
U31C G42A A64G U67A | 0.12
U31C G46A A75G | 0.37
U31C G52A A65G | 0.29
U31C G52A A65U | 0.44
U31C G52C A56G U78C | 0.29
U31C G52C U54C | 0.98
U31C G55U G70A | 0.34
U31C G63A A64C | 0.15
U31C G63C A65U U80C | 0.18
U31C G63C U67C | 0.12
